Consider 26 compounds from the antibiotic and cytotoxicity screens of Wong et al. (2023).

One assay has as its system HSkMC. Briefly: cytotoxicity call (relative viability < 0.9). The following applies: 10 µM.
For the next assay, the system named is HepG2. Nature of the assay: cytotoxicity call (relative viability < 0.9). The following applies: 10 µM.
In a further assay the test system is S. aureus RN4220. Briefly: growth inhibition call (relative growth <= 0.2). The following applies: 50 µM.

Some of the results follow.

As to `NCc1cccc(-c2ccco2)c1`, the cytotoxicity call in the assay with HSkMC and in the assay with HepG2 was “inactive” in each case. Also, in the assay with S. aureus RN4220, the growth inhibition call is “inactive”.

On to `COc1ccc(CN(C)C[C@@H]2OCCCC[C@H](C)Oc3ccc(NC(=O)Nc4ccc5c(c4)OCO5)cc3C(=O)N([C@@H](C)CO)C[C@@H]2C)cc1`, for which the cytotoxicity call in the assay on HSkMC and with HepG2 was “inactive” throughout. Further, in the assay with S. aureus RN4220, the growth inhibition call was “inactive”.

In the case of `O=C(C[C@@H]1CC[C@H]2[C@@H](COC[C@H](O)CN2S(=O)(=O)c2ccc(F)cc2)O1)N[C@@H]1CCN(Cc2ccccc2)C1`, the cytotoxicity call in the assay with HSkMC and in the assay on HepG2 was “inactive” in each case. Moreover, in the assay with S. aureus RN4220, the growth inhibition call is “inactive”.

`C[C@@H]1CN([C@@H](C)CO)C(=O)c2cc(NC(=O)C3CCCCC3)ccc2O[C@@H](C)CCCCO[C@@H]1CN(C)Cc1ccc2c(c1)OCO2`: the cytotoxicity call in the assay with HSkMC and with HepG2 was “inactive” throughout. Also, the growth inhibition call with S. aureus RN4220 is “inactive”.

In the case of `C[C@H](CO)N1C[C@H](C)[C@H](CN(C)C(=O)Nc2ccc(F)cc2)OCCCC[C@H](C)Oc2ccc(NC(=O)CCC(F)(F)F)cc2C1=O`, the cytotoxicity call with HSkMC and in the assay with HepG2 was “inactive” each time. Moreover, the growth inhibition call in the assay on S. aureus RN4220 is “inactive”.

With `CSc1nc2cc(Cl)c(Oc3cccc(Cl)c3Cl)cc2[nH]1`, the cytotoxicity call in the assay on HSkMC and in the assay on HepG2 was “inactive” in each case. Besides, in the assay with S. aureus RN4220, the growth inhibition call was “inactive”.

Regarding `C[C@H](CO)N1C[C@H](C)[C@@H](CN(C)Cc2cccnc2)Oc2cc(C#CCN(C)C)ccc2S1(=O)=O`, the cytotoxicity call in the assay with HSkMC and with HepG2 was “inactive” each time. Also, in the assay on S. aureus RN4220, the growth inhibition call was “inactive”.

Take `C[C@H](O)C#Cc1ccc2c(c1)O[C@H](CN(C)C(=O)c1ccccc1)[C@@H](C)CN([C@H](C)CO)S2(=O)=O`: the cytotoxicity call in the assay on HSkMC and in the assay on HepG2 was “inactive” in each case. The growth inhibition call in the assay with S. aureus RN4220 was “inactive”.

Consider `C[C@H](CO)N1C[C@H](C)[C@@H](CN(C)C(=O)c2ccc(N3CCN(C)CC3)cc2)OCc2cnnn2CCCC1=O`, for which the cytotoxicity call in the assay with HSkMC and in the assay on HepG2 was “inactive” each time. In the assay on S. aureus RN4220, the growth inhibition call was “inactive”.

For the compound `CCNC(=O)CCC(N)C(=O)[O-].[K+]` (stereo not drawn), the cytotoxicity call in the assay with HSkMC and with HepG2 was “inactive” in each case. Also, in the assay with S. aureus RN4220, the growth inhibition call was “inactive”.

For the compound `Cn1nnc2c1[C@H](COCC1CC1)CN(C(=O)CS(C)(=O)=O)C2`, the cytotoxicity call with HSkMC and with HepG2 was “inactive” in each case. Further, in the assay with S. aureus RN4220, the growth inhibition call is “inactive”.

In the case of `Cc1noc(C)c1S(=O)(=O)Nc1ccc2c(c1)CC(=O)N([C@H](C)CO)C[C@@H](C)[C@@H](CN(C)C(=O)Nc1ccc3c(c1)OCO3)O2`, the cytotoxicity call in the assay on HSkMC and in the assay with HepG2 was “inactive” in each case. In the assay with S. aureus RN4220, the growth inhibition call was “inactive”.

Regarding `C[C@@H]1CN([C@@H](C)CO)C(=O)c2cccc(NS(=O)(=O)c3ccc(F)cc3)c2O[C@@H]1CN(C)S(=O)(=O)c1cn(C)cn1`, the cytotoxicity call in the assay with HSkMC and in the assay on HepG2 was “inactive” each time. For the same compound, the growth inhibition call in the assay with S. aureus RN4220 was “inactive”.

For the compound `COCC#Cc1cnc2c(c1)C(=O)N([C@@H](C)CO)C[C@@H](C)[C@@H](CN(C)C(C)=O)O2`, the cytotoxicity call in the assay with HSkMC and in the assay on HepG2 was “inactive” each time. Further, in the assay on S. aureus RN4220, the growth inhibition call was “inactive”.

Regarding `Cc1c2oc3c(C)ccc(C(=O)OC(C)C4NC(=O)C(C(C)C)N(C)C(=O)CN(C)C(=O)C5CCCN5C(=O)C(C(C)C)NC4=O)c3nc-2c(C(=O)OC(C)C2NC(=O)C(C(C)C)N(C)C(=O)CN(C)C(=O)C3CCCN3C(=O)C(C(C)C)NC2=O)c(N)c1=O` (stereo not drawn), the cytotoxicity call in the assay with HSkMC is “inactive”. Also, in the assay on HepG2, the cytotoxicity call was “active”. Further, the growth inhibition call with S. aureus RN4220 was “active”.

On to `NCC1CCSCC1`, for which the cytotoxicity call with HSkMC and in the assay with HepG2 was “inactive” each time. For the same compound, the growth inhibition call in the assay on S. aureus RN4220 is “inactive”.

`C[C@@H]1CN([C@@H](C)CO)C(=O)c2cc(NC(=O)C3CCCCC3)ccc2O[C@@H](C)CCCCO[C@H]1CN(C)S(=O)(=O)c1ccc(F)cc1`: the cytotoxicity call with HSkMC and in the assay on HepG2 was “inactive” in each case. Also, the growth inhibition call with S. aureus RN4220 was “inactive”.

Regarding `C[C@@H]1CN([C@H](C)CO)C(=O)c2cc(C#C[C@@H](C)O)cnc2O[C@H]1CN(C)Cc1cncnc1`, the cytotoxicity call with HSkMC and with HepG2 was “inactive” each time. For the same compound, in the assay on S. aureus RN4220, the growth inhibition call is “inactive”.

`CN1CCN(C(=O)C[C@@H]2CC[C@@H]3[C@H](COC[C@@H](O)CN3S(=O)(=O)c3cccc(F)c3)O2)CC1`: the cytotoxicity call in the assay with HSkMC and in the assay on HepG2 was “inactive” throughout. Further, in the assay on S. aureus RN4220, the growth inhibition call was “inactive”.

Turning to `COc1ccc(S(=O)(=O)N(C)C[C@@H]2OCCCC[C@H](C)Oc3ccc(NC(=O)Nc4ccc5c(c4)OCO5)cc3C(=O)N([C@H](C)CO)C[C@@H]2C)cc1`, the cytotoxicity call with HSkMC and in the assay on HepG2 was “inactive” in each case. Further, the growth inhibition call in the assay on S. aureus RN4220 was “inactive”.

`Cc1noc(C)c1S(=O)(=O)Nc1ccc2c(c1)CC(=O)N([C@@H](C)CO)C[C@H](C)[C@H](CN(C)S(=O)(=O)c1cccs1)O2`: the cytotoxicity call in the assay on HSkMC and with HepG2 was “inactive” throughout. For the same compound, the growth inhibition call in the assay on S. aureus RN4220 was “inactive”.

Regarding `CC(C)NC(=O)N(C)C[C@H]1Oc2ccc(NS(=O)(=O)c3cn(C)cn3)cc2CC(=O)N([C@@H](C)CO)C[C@H]1C`, the cytotoxicity call in the assay on HSkMC and with HepG2 was “inactive” in each case. The growth inhibition call in the assay on S. aureus RN4220 was “inactive”.

With `COc1ccc(S(=O)(=O)N(C)C[C@H]2Oc3ccc(NC(=O)Nc4cccc5ccccc45)cc3C(=O)N([C@@H](C)CO)C[C@H]2C)cc1`, the cytotoxicity call in the assay with HSkMC and with HepG2 was “inactive” each time. For the same compound, the growth inhibition call with S. aureus RN4220 was “inactive”.

For `C[C@@H]1CN([C@@H](C)CO)C(=O)CCCn2nncc2CO[C@H]1CN(C)C(=O)Nc1cccc(C(F)(F)F)c1`, the cytotoxicity call in the assay with HSkMC and in the assay on HepG2 was “inactive” throughout. In addition, the growth inhibition call with S. aureus RN4220 is “inactive”.

With `CC1=NC(=O)C2(CCNCC2)N1`, the cytotoxicity call with HSkMC and with HepG2 was “inactive” throughout. The growth inhibition call in the assay with S. aureus RN4220 is “inactive”.

For the compound `COC(=O)C1C(O)CCC2CN3CCc4c([nH]c5ccccc45)C3CC21.Cl` (stereo not drawn), the cytotoxicity call in the assay on HSkMC (human skeletal muscle cells) and in the assay on HepG2 was “inactive” in each case. Also, the growth inhibition call in the assay with S. aureus RN4220 is “inactive”.
